{
  "source": "PubChem BioAssay AID2147",
  "about": "(National Center for Advancing Translational Sciences (NCATS), 2009)",
  "note": "Out of some 230,000 compounds screened, about 3,600 (1.6%) were called active. This list was built around the results that the source calls inconclusive (neither active nor inactive); the mix of calls is not that of the screen. Calls follow the shape of the dose curve; as a rule, active = well fitted inhibition curve with a large enough effect (not every such curve was filed as active); inconclusive = small, poorly fitted or top-dose-only effect, or another doubt; inactive = no such curve, though single readings can be large or run the other way. Potencies beside an inconclusive call are fits to weak or partial responses and may not hold up. Also: nearly all actives have a fitted effect of over 50% in size.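 For activity change, negative = inhibition in this document: 0% = wells with enzyme and -100% = buffer wells without enzyme.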 Potency is read from the fitted curve at half-maximal effect; tags tell the direction and shape of the fitted curve.",
  "data": [
    {"biological_target": "Lysine-specific demethylase 4E (Homo sapiens) (UniProt B2RXH2)", "sequence (B2RXH2 whole entry, looked up, the tested form may be a part)": "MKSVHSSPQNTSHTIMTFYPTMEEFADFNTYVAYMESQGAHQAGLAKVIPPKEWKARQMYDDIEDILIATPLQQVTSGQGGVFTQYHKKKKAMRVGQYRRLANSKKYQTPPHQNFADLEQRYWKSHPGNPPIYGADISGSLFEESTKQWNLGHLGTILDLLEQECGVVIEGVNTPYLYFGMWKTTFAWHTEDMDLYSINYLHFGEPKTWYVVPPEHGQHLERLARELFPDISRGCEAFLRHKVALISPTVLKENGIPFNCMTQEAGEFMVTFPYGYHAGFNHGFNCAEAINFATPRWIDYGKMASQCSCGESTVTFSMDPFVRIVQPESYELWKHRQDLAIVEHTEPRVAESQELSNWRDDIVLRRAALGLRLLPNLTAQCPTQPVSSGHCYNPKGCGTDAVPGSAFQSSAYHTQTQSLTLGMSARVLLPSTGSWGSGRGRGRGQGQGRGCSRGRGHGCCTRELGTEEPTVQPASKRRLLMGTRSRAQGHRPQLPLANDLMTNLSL", "assay": "qHTS Assay for Inhibitors of Human Jumonji Domain Containing 2E (JMJD2E)", "settings": "JMJD2E catalytic domain, FDH-coupled NADH fluorescence (FDH is formaldehyde dehydrogenase); series mostly up to 57.1 µM; activity change, negative = inhibition: at the top concentration", "values": [
      {"smiles": "COc1ccc(-c2cc(C(F)(F)F)n3nc(C(=O)O)nc3n2)cc1", "Potency": "inconclusive: 31.6 µM [inhibitor, partial curve]"},
      {"smiles": "CCOc1ccc2nc3c(cc2c1)CN(CCOC)C(=NC)S3", "Potency": "inconclusive: 35.5 µM [inhibitor, single point]"},
      {"smiles": "COc1ccc2[nH]c(C(=O)Nc3ccc4c(c3)OCO4)cc2c1", "Potency": "inconclusive: 35.5 µM [inhibitor, single point]"},
      {"smiles": "CC(C)OC(=O)CSc1nc(N)c(C#N)cc1C#N", "Potency": "inconclusive: 31.6 µM [inhibitor, single point]"},
      {"smiles": "Cc1nc(NC(=O)/C=C/c2ccco2)sc1C", "Potency": "inconclusive: 39.8 µM [inhibitor, single point]"},
      {"smiles": "N#Cc1cccnc1N1CCC(C(N)=O)CC1", "Potency": "inconclusive: 25.1 µM [inhibitor, partial curve]"},
      {"smiles": "CCOC(=O)c1c(/N=C/c2cccc([N+](=O)[O-])c2O)sc(C)c1C", "activity change, negative = inhibition": "inactive: 0.48%"},
      {"smiles": "CCC(C)(C)n1nnnc1C(c1cc2cccc(C)c2[nH]c1=O)N1CCCC1", "note": "(configuration not stated)", "Potency": "inconclusive: 28.2 µM [inhibitor, single point]"},
      {"smiles": "CSc1oc(-c2cccs2)nc1S(=O)(=O)c1ccccc1", "Potency": "inconclusive: 31.6 µM [inhibitor, partial curve]"},
      {"smiles": "CC(C)[C@H](NC(=O)Cc1ccccc1)C(=O)OCc1cc(=O)n2c(n1)sc1ccccc12", "Potency": "inconclusive: 39.8 µM [inhibitor, single point]"},
      {"smiles": "CC1(C)CC(=O)c2sc(NC(=O)C3COc4ccccc4O3)nc2C1", "note": "(configuration not stated)", "Potency": "inconclusive: 39.8 µM [inhibitor, single point]"},
      {"smiles": "O=C(NNS(=O)(=O)c1ccc(Br)cc1)c1ccncc1", "activity change, negative = inhibition": "inactive: -3.39%"},
      {"smiles": "C/C(=N/NC(=O)CNC(=O)c1ccncc1)c1ccco1", "activity change, negative = inhibition": "inactive: -4.79%"},
      {"smiles": "Oc1cccc(/C=N/N2CCN(c3ccccn3)CC2)c1", "activity change, negative = inhibition": "inactive: 1.74%"},
      {"smiles": "N#Cc1ccc(-c2ccc(F)cc2)nc1Oc1ccc(F)cc1", "Potency": "inconclusive: 22.4 µM [inhibitor, partial curve]"},
      {"smiles": "Cc1[nH]c2c(C(=O)N3CCCC(CCC(=O)NCc4ccccc4F)C3)cccc2c1C", "note": "(configuration not stated)", "Potency": "inconclusive: 14.1 µM [inhibitor, partial curve]"},
      {"smiles": "CCC(Sc1ccc2nnc(-c3ccc(F)cc3)n2n1)C(=O)O", "note": "(configuration not stated)", "Potency": "inconclusive: 35.5 µM [inhibitor, partial curve]"},
      {"smiles": "COC(CSc1ncnc2c1oc1nc3c(cc12)COC(C)(C)C3)OC", "Potency": "inconclusive: 35.5 µM [inhibitor, single point]"},
      {"smiles": "C=CCn1c(C(C)NC(=O)c2cccc(C)c2)n[nH]c1=S", "note": "(configuration not stated)", "Potency": "inconclusive: 8.91 µM [inhibitor, single point]"},
      {"smiles": "CCOC(=O)c1sc2nc(CC(=O)OC)nc(NCc3ccc(F)cc3)c2c1C", "Potency": "inconclusive: 35.5 µM [inhibitor, partial curve]"},
      {"smiles": "CCCCOc1ccc(/C(O)=C2/C(=O)C(=O)N(CCCOC)C2c2ccncc2)cc1", "note": "(configuration not stated)", "Potency": "inconclusive: 39.8 µM [inhibitor, single point]"},
      {"smiles": "CCN(CC)CCNC(=O)c1cc2c(-c3ccc(Cl)cc3)nn(C)c2s1", "Potency": "inconclusive: 31.6 µM [inhibitor, partial curve]"},
      {"smiles": "Cc1cc2c(nc1C)CCCN2C[C@@H](C)O/N=C1/[C@H]2CCn3c(=O)n(-c4ccccc4)c(=O)n3[C@H]2[C@H](O)[C@@H]2O[C@H]12", "Potency": "inconclusive: 28.2 µM [inhibitor, partial curve]"},
      {"smiles": "CCOC(=O)c1sc(NC(=O)C2CC2)nc1C", "activity change, negative = inhibition": "inactive: -12.6%"},
      {"smiles": "O=C(O)CCc1ccc(-c2ccc(Cl)cc2)n1Cc1ccco1", "Potency": "inconclusive: 25.1 µM [inhibitor, single point]"},
      {"smiles": "COC(=O)c1[nH]c2cc(C)ccc2c1NC(=O)CN1CCc2cc(OC)c(OC)cc2C1", "Potency": "inconclusive: 35.5 µM [inhibitor, partial curve]"},
      {"smiles": "O=S(=O)(Nc1ccc2c(c1)nc1n2CCN(Cc2ccccc2)C1)c1ccc(Cl)cc1", "Potency": "inconclusive: 39.8 µM [inhibitor, single point]"},
      {"smiles": "CC1(C)CC(NC(=O)c2coc(=O)c(Br)c2)CC(C)(C)N1", "Potency": "inconclusive: 28.2 µM [inhibitor, partial curve]"},
      {"smiles": "O=C(CN1CCN(C2CCCCC2)CC1)Nc1ccccc1-c1ccccc1", "Potency": "inconclusive: 39.8 µM [inhibitor, single point]"},
      {"smiles": "COc1cccc(CN2CCN(Cc3ccc(O)cc3)CC2CCO)c1", "note": "(configuration not stated)", "activity change, negative = inhibition": "inactive: -3.7%"},
      {"smiles": "C/C(=N\\OC(=O)Nc1ccccc1)c1cnn(-c2cc(C(F)(F)F)cc(C)n2)c1C", "activity change, negative = inhibition": "inactive: 3.2%"},
      {"smiles": "c1cncc(-c2nn3c(Cn4cnc5ccccc54)nnc3s2)c1", "activity change, negative = inhibition": "inactive: 1.22%"},
      {"smiles": "O=C1NC(c2ccco2)Nc2ccccc21", "note": "(configuration not stated)", "Potency": "inconclusive: 25.1 µM [inhibitor, partial curve]"},
      {"smiles": "O=C(COc1cccnc1[N+](=O)[O-])c1ccc(Cl)s1", "Potency": "active: 14.1 µM"},
      {"smiles": "Cc1cc(C)c2c(N)c(C(=O)c3ccc(Cl)cc3Cl)sc2n1", "Potency": "inconclusive: 28.2 µM [inhibitor, partial curve]"},
      {"smiles": "CCOC(=O)C(C)Sc1nc(-c2ccco2)cc(C(F)(F)F)c1C#N", "note": "(configuration not stated)", "Potency": "inconclusive: 22.4 µM [inhibitor, partial curve]"},
      {"smiles": "CC(C)(C)c1cc(/C=N/NC(=O)Cc2nc3ccccc3[nH]2)cc(C(C)(C)C)c1O", "Potency": "inconclusive: 35.5 µM [inhibitor, single point]"},
      {"smiles": "CC(C)S(=O)(=O)C1=NSC2=NC(=O)/C(=C\\c3ccc(-c4ccccc4)o3)C(=N)N21", "activity change, negative = inhibition": "inactive: 0.737%"},
      {"smiles": "CCCN(CC(=O)Nc1ccccc1C)C(=O)c1cc(=O)[nH]c2ccccc12", "Potency": "inconclusive: 28.2 µM [inhibitor, single point]"},
      {"smiles": "COc1ccc(-c2cc(C(=O)O)c3c(C)nn(-c4ccccn4)c3n2)cc1", "Potency": "inconclusive: 28.2 µM [inhibitor, partial curve]"},
      {"smiles": "O=C(C[N+]1(CC#Cc2ccccc2)CCOCC1)c1ccc(Cl)cc1", "activity change, negative = inhibition": "inactive: -5.28%"},
      {"smiles": "O=C(O)c1ccc(COc2ccc3ccccc3c2/C=C2/NC(=O)N(Cc3ccc(F)cc3)C2=O)cc1", "Potency": "inconclusive: 35.5 µM [inhibitor, partial curve]"},
      {"smiles": "COc1ccc(OC)c(Nc2nc(-c3ccc(O)c(O)c3)cs2)c1", "Potency": "active: 28.2 µM"},
      {"smiles": "Cc1ccc(CS(=O)(=O)c2ccccc2-c2nnc(-c3ccc(Cl)cc3)o2)cc1", "Potency": "inconclusive: 35.5 µM [inhibitor, single point]"},
      {"smiles": "COc1ccc(OC)c(N2C(=O)C(Cl)=C(N3CCCCC3)C2=O)c1", "activity change, negative = inhibition": "inactive: 6.23%"},
      {"smiles": "CCN1CCN(Cc2ccc(NC(=O)c3cc(NC(=O)c4cc5cccc(OC)c5o4)cc(OC)c3)cc2C(F)(F)F)CC1", "Potency": "inconclusive: 35.5 µM [inhibitor, single point]"},
      {"smiles": "COc1cc(CNn2c(C)n[nH]c2=S)cc(Cl)c1OCc1ccc(F)cc1", "activity change, negative = inhibition": "inactive: -11%"},
      {"smiles": "CC(=O)Nc1ccc(S(=O)(=O)NNC(=O)c2cccc(Cl)c2)cc1", "Potency": "inconclusive: 35.5 µM [inhibitor, single point]"},
      {"smiles": "COc1ccc(CCNC(=O)c2ccc3nc(-c4ccco4)c(-c4ccco4)nc3c2)cc1OC", "Potency": "active: 12.6 µM"},
      {"smiles": "CC(=O)Nc1ccc(NC(=O)C(C)OC(=O)/C=C/c2cnc3ccccc3n2)cc1", "note": "(configuration not stated)", "Potency": "inconclusive: 1.58 µM [inhibitor, full curve]"},
      {"smiles": "C/C(=N/NC(=O)COc1cc(C)ccc1C(C)C)C(=O)O", "activity change, negative = inhibition": "inactive: -26.2%"},
      {"smiles": "O=C1c2ccccc2-c2onc3ccc(N4CCCC4)c1c23", "Potency": "active: 17.8 µM"},
      {"smiles": "C=CCn1c(-c2cccc(OC)c2)n[nH]c1=S", "Potency": "inconclusive: 39.8 µM [inhibitor, single point]"},
      {"smiles": "COc1ccc(C2C(C(=O)N3CCN(c4ccccn4)CC3)CC(=O)N2c2ccc(OC)cc2)cc1", "note": "(configuration not stated)", "Potency": "inconclusive: 14.1 µM [inhibitor, partial curve]"},
      {"smiles": "CC(=O)Nc1ccc(S(=O)(=O)Nc2nc3ccccc3nc2Nc2ccc3ccccc3c2)cc1", "Potency": "inconclusive: 14.1 µM [inhibitor, partial curve]"},
      {"smiles": "Cc1cc(C(F)(F)F)nc(NCc2ccc(F)cc2)n1", "Potency": "inconclusive: 39.8 µM [inhibitor, single point]"},
      {"smiles": "Cc1cccc(CSc2nnc(NC(=O)c3ccco3)s2)c1", "Potency": "inconclusive: 28.2 µM [inhibitor, single point]"},
      {"smiles": "Nc1cc(C(=O)OCC(=O)NCC2CCCO2)ccc1Cl", "note": "(configuration not stated)", "Potency": "inconclusive: 25.1 µM [inhibitor, single point]"},
      {"smiles": "CCS(=O)(=O)NCCc1cc2ccc(C)cc2[nH]c1=O", "Potency": "inconclusive: 39.8 µM [inhibitor, single point]"},
      {"smiles": "Cc1[nH]nc2c1C(c1cccc(O)c1)C1=C(CC(C)(C)CC1=O)N2", "note": "(configuration not stated)", "Potency": "inconclusive: 31.6 µM [inhibitor, partial curve]"},
      {"smiles": "COc1ccc(C2=NOC(CN3C(=O)c4ccccc4S3(=O)=O)C2)cc1", "note": "(configuration not stated)", "Potency": "inconclusive: 28.2 µM [inhibitor, single point]"},
      {"smiles": "CCOC(=O)Cn1c(=NC(=O)CSC(C)=O)sc2cc(F)ccc21", "Potency": "inconclusive: 39.8 µM [inhibitor, single point]"},
      {"smiles": "COC(=O)Nc1ccc(S(=O)(=O)Nc2ncccn2)cc1", "Potency": "inconclusive: 31.6 µM [inhibitor, single point]"},
      {"smiles": "COc1ccnc(NCc2ccc(Cl)cc2)c1C#N", "Potency": "inconclusive: 17.8 µM [inhibitor, partial curve]"},
      {"smiles": "CCOc1ccc2c3c(c(=O)oc2c1OCC)CCCC3", "Potency": "inconclusive: 28.2 µM [inhibitor, single point]"},
      {"smiles": "Cc1nc(-c2ccc(S(=O)(=O)N3CCN(C(c4ccccc4)c4ccccc4)CC3)s2)cs1", "Potency": "inconclusive: 35.5 µM [inhibitor, single point]"},
      {"smiles": "CCn1c(=O)cc(OCC(=O)Nc2cccnc2)c2ccccc21", "Potency": "inconclusive: 39.8 µM [inhibitor, single point]"}
    ]}
  ]
}
